Laboratory results: the supplement of paper PMC4967469
By IC50 is meant the dose at which the fit gives 50% viability; fits outside the tested doses are given as limits. AUC is the area under the same curve over the 256-fold range up to the top dose, as a fraction; the more sensitive the line, the further below 1. The top dose, if marked as inferred, was derived from the fitted curves, not read from the paper.

Each cell line was assayed with CCc1nc(-c2cccc(C)c2)c(-c2ccnc(NC(=O)c3ccccc3)c2)s1 [TAK-715] (assay: Viability of human cancer cell lines after 72 h of drug (GDSC screen)). Conditions: top dose inferred.
Description: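 Human cancer cell lines in 384-well plates, medium with 10% serum, drug for 72 h over a 256-fold dose range (nine 2-fold or five 4-fold steps up to the top dose). Adherent lines were fixed and stained with the nucleic acid dye Syto60, suspension lines read with resazurin; signal relative to control wells, capped at 0 and 100%. One two-parameter sigmoid per drug and line, fitted in a mixed model over all curves with the slope shared within a line.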

Q: For “NAMALWA (Burkitt lymphoma, suspension, top dose 20 µM)”, which AUC is on record?
A: 0.885

Q: And the IC50?
A: 15.8 µM

Q: Which results are given for “NB5 (neuroblastoma, adherent, top dose 20 µM)”?
A: AUC: 0.98; IC50: > 20 µM

Q: With “NB6 (neuroblastoma, adherent, top dose 20 µM)” as the cell line, how does the AUC read?
A: 0.977

Q: And the IC50?
A: > 20 µM

Q: Which results are given for “NB7 (neuroblastoma, adherent, top dose 20 µM)”?
A: AUC: 0.875; IC50: > 20 µM

Q: “NB10 (neuroblastoma, adherent, top dose 20 µM)” was tested. Which AUC did it give?
A: 0.931

Q: What about the IC50 of the same cell line?
A: > 20 µM

Q: What does the source list for “NB12 (neuroblastoma, adherent, top dose 20 µM)”?
A: AUC: 0.895; IC50: > 20 µM

Q: Which results are given for “NB13 (neuroblastoma, adherent, top dose 20 µM)”?
A: AUC: 0.965; IC50: > 20 µM

Q: Which results are given for “NB14 (neuroblastoma, adherent, top dose 20 µM)”?
A: AUC: 0.935; IC50: > 20 µM

Q: “NB17 (neuroblastoma, adherent, top dose 20 µM)” was tested. Which AUC did it give?
A: 0.967

Q: And the IC50?
A: > 20 µM

Q: What does the source list for “NB69 (neuroblastoma, adherent, top dose 20 µM)”?
A: AUC: 0.977; IC50: > 20 µM

Q: “NB(TU)1-10 (neuroblastoma, adherent, top dose 20 µM)” was tested. Which AUC did it give?
A: 0.982

Q: What about the IC50 of the same cell line?
A: > 20 µM

Q: With “NB-4 (acute myeloid leukaemia, suspension, top dose 20 µM)” as the cell line, how does the AUC read?
A: 0.94

Q: What about the IC50 of the same cell line?
A: > 20 µM

Q: Which results are given for “NCC021 (kidney, adherent, top dose 20 µM)”?
A: AUC: 0.985; IC50: > 20 µM

Q: What does the source list for “NCI-H23 (lung adenocarcinoma, adherent, top dose 20 µM)”?
A: AUC: 0.937; IC50: > 20 µM

Q: With “NCI-H28 (mesothelioma, adherent, top dose 20 µM)” as the cell line, how does the AUC read?
A: 0.967

Q: What about the IC50 of the same cell line?
A: > 20 µM

Q: “NCI-H64 (small cell lung carcinoma, suspension, top dose 20 µM)” was tested. Which AUC did it give?
A: 0.951

Q: What about the IC50 of the same cell line?
A: > 20 µM

Q: “NCI-H69 (small cell lung carcinoma, suspension, top dose 20 µM)” was tested. Which AUC did it give?
A: 0.951

Q: And the IC50?
A: > 20 µM

Q: For “NCI-H82 (small cell lung carcinoma, suspension, top dose 20 µM)”, which AUC is on record?
A: 0.968

Q: And the IC50?
A: > 20 µM

Q: Which AUC does the source give for “NCI-H187 (small cell lung carcinoma, suspension, top dose 20 µM)” here?
A: 0.986

Q: And the IC50?
A: > 20 µM

Q: With “NCI-H196 (small cell lung carcinoma, adherent, top dose 20 µM)” as the cell line, how does the AUC read?
A: 0.988

Q: What about the IC50 of the same cell line?
A: > 20 µM

Q: For “NCI-H209 (small cell lung carcinoma, suspension, top dose 20 µM)”, which AUC is on record?
A: 0.986

Q: And the IC50?
A: > 20 µM

Q: With “NCI-H211 (small cell lung carcinoma, adherent, top dose 20 µM)” as the cell line, how does the AUC read?
A: 0.94

Q: And the IC50?
A: > 20 µM

Q: How did the AUC turn out when “NCI-H226 (lung squamous cell carcinoma, adherent, top dose 20 µM)” was run?
A: 0.921

Q: And the IC50?
A: > 20 µM

Q: What does the source list for “NCI-H292 (lung adenocarcinoma, adherent, top dose 20 µM)”?
A: AUC: 0.915; IC50: > 20 µM

Q: Which AUC does the source give for “NCI-H322M (lung adenocarcinoma, suspension, top dose 20 µM)” here?
A: 0.967

Q: And the IC50?
A: > 20 µM

Q: What does the source list for “NCI-H345 (small cell lung carcinoma, suspension, top dose 20 µM)”?
A: AUC: 0.957; IC50: > 20 µM

Q: “NCI-H358 (lung adenocarcinoma, adherent, top dose 20 µM)” was tested. Which AUC did it give?
A: 0.79

Q: And the IC50?
A: 10 µM

Q: Which AUC does the source give for “NCI-H441 (lung adenocarcinoma, adherent, top dose 20 µM)” here?
A: 0.931

Q: What about the IC50 of the same cell line?
A: > 20 µM

Q: Which results are given for “NCI-H446 (small cell lung carcinoma, semi-adherent, top dose 20 µM)”?
A: AUC: 0.978; IC50: > 20 µM

Q: Which AUC does the source give for “NCI-H460 (large cell lung carcinoma, adherent, top dose 20 µM)” here?
A: 0.969

Q: What about the IC50 of the same cell line?
A: > 20 µM

Q: Which AUC does the source give for “NCI-H510A (small cell lung carcinoma, semi-adherent, top dose 20 µM)” here?
A: 0.989

Q: What about the IC50 of the same cell line?
A: > 20 µM

Q: What does the source list for “NCI-H520 (lung squamous cell carcinoma, adherent, top dose 20 µM)”?
A: AUC: 0.931; IC50: > 20 µM

Q: Which results are given for “NCI-H522 (lung adenocarcinoma, adherent, top dose 20 µM)”?
A: AUC: 0.932; IC50: > 20 µM

Q: For “NCI-H524 (small cell lung carcinoma, suspension, top dose 20 µM)”, which AUC is on record?
A: 0.954

Q: What about the IC50 of the same cell line?
A: > 20 µM

Q: For “NCI-H526 (small cell lung carcinoma, suspension, top dose 20 µM)”, which AUC is on record?
A: 0.984

Q: What about the IC50 of the same cell line?
A: > 20 µM

Q: Which AUC does the source give for “NCI-H596 (lung adenocarcinoma, adherent, top dose 20 µM)” here?
A: 0.981

Q: What about the IC50 of the same cell line?
A: > 20 µM

Q: What does the source list for “NCI-H630 (large intestine, adherent, top dose 20 µM)”?
A: AUC: 0.936; IC50: > 20 µM

Q: “NCI-H647 (non-small cell lung carcinoma, adherent, top dose 20 µM)” was tested. Which AUC did it give?
A: 0.876

Q: And the IC50?
A: > 20 µM

Q: “NCI-H650 (lung adenocarcinoma, adherent, top dose 20 µM)” was tested. Which AUC did it give?
A: 0.948

Q: What about the IC50 of the same cell line?
A: > 20 µM

Q: What does the source list for “NCI-H661 (large cell lung carcinoma, adherent, top dose 20 µM)”?
A: AUC: 0.926; IC50: > 20 µM

Q: Which results are given for “NCI-H716 (large intestine, suspension, top dose 20 µM)”?
A: AUC: 0.902; IC50: > 20 µM

Q: Which AUC does the source give for “NCI-H720 (lung carcinoid, suspension, top dose 20 µM)” here?
A: 0.944

Q: And the IC50?
A: > 20 µM

Q: Which results are given for “NCI-H727 (lung carcinoid, adherent, top dose 20 µM)”?
A: AUC: 0.932; IC50: > 20 µM

Q: What does the source list for “NCI-H747 (large intestine, adherent, top dose 20 µM)”?
A: AUC: 0.807; IC50: 13.1 µM

Q: For “NCI-H748 (small cell lung carcinoma, suspension, top dose 20 µM)”, which AUC is on record?
A: 0.967

Q: What about the IC50 of the same cell line?
A: > 20 µM

Q: For “NCI-H810 (large cell lung carcinoma, adherent, top dose 20 µM)”, which AUC is on record?
A: 0.916

Q: And the IC50?
A: > 20 µM

Q: Which AUC does the source give for “NCI-H838 (lung adenocarcinoma, adherent, top dose 20 µM)” here?
A: 0.974

Q: What about the IC50 of the same cell line?
A: > 20 µM

Q: “NCI-H841 (small cell lung carcinoma, adherent, top dose 20 µM)” was tested. Which AUC did it give?
A: 0.949

Q: And the IC50?
A: > 20 µM

Q: What does the source list for “NCI-H847 (small cell lung carcinoma, adherent, top dose 20 µM)”?
A: AUC: 0.939; IC50: > 20 µM

Q: Which results are given for “NCI-H1048 (small cell lung carcinoma, adherent, top dose 20 µM)”?
A: AUC: 0.919; IC50: > 20 µM

Q: How did the AUC turn out when “NCI-H1092 (small cell lung carcinoma, suspension, top dose 20 µM)” was run?
A: 0.936

Q: What about the IC50 of the same cell line?
A: > 20 µM

Q: For “NCI-H1155 (large cell lung carcinoma, suspension, top dose 20 µM)”, which AUC is on record?
A: 0.913

Q: What about the IC50 of the same cell line?
A: > 20 µM

Q: What does the source list for “NCI-H1299 (large cell lung carcinoma, adherent, top dose 20 µM)”?
A: AUC: 0.98; IC50: > 20 µM

Q: How did the AUC turn out when “NCI-H1304 (small cell lung carcinoma, suspension, top dose 20 µM)” was run?
A: 0.946

Q: What about the IC50 of the same cell line?
A: > 20 µM

Q: What does the source list for “NCI-H1355 (lung adenocarcinoma, adherent, top dose 20 µM)”?
A: AUC: 0.927; IC50: > 20 µM

Q: With “NCI-H1395 (lung adenocarcinoma, adherent, top dose 20 µM)” as the cell line, how does the AUC read?
A: 0.972

Q: What about the IC50 of the same cell line?
A: > 20 µM

Q: Which AUC does the source give for “NCI-H1417 (small cell lung carcinoma, suspension, top dose 20 µM)” here?
A: 0.843

Q: What about the IC50 of the same cell line?
A: 18.4 µM

Q: For “NCI-H1435 (lung adenocarcinoma, semi-adherent, top dose 20 µM)”, which AUC is on record?
A: 0.976

Q: And the IC50?
A: > 20 µM

Q: “NCI-H1436 (small cell lung carcinoma, suspension, top dose 20 µM)” was tested. Which AUC did it give?
A: 0.955

Q: What about the IC50 of the same cell line?
A: > 20 µM

Q: For “NCI-H1437 (lung adenocarcinoma, adherent, top dose 20 µM)”, which AUC is on record?
A: 0.9

Q: And the IC50?
A: > 20 µM

Q: For “NCI-H1563 (lung adenocarcinoma, adherent, top dose 20 µM)”, which AUC is on record?
A: 0.935

Q: What about the IC50 of the same cell line?
A: > 20 µM

Q: For “NCI-H1568 (lung adenocarcinoma, adherent, top dose 20 µM)”, which AUC is on record?
A: 0.968

Q: What about the IC50 of the same cell line?
A: > 20 µM

Q: With “NCI-H1573 (lung adenocarcinoma, adherent, top dose 20 µM)” as the cell line, how does the AUC read?
A: 0.959

Q: What about the IC50 of the same cell line?
A: > 20 µM

Q: What does the source list for “NCI-H1581 (large cell lung carcinoma, semi-adherent, top dose 20 µM)”?
A: AUC: 0.933; IC50: > 20 µM

Q: Which AUC does the source give for “NCI-H1623 (lung adenocarcinoma, adherent, top dose 20 µM)” here?
A: 0.978

Q: And the IC50?
A: > 20 µM

Q: Which AUC does the source give for “NCI-H1648 (lung adenocarcinoma, adherent, top dose 20 µM)” here?
A: 0.934

Q: What about the IC50 of the same cell line?
A: > 20 µM

Q: Which AUC does the source give for “NCI-H1651 (lung adenocarcinoma, adherent, top dose 20 µM)” here?
A: 0.983

Q: What about the IC50 of the same cell line?
A: > 20 µM

Q: For “NCI-H1666 (lung adenocarcinoma, semi-adherent, top dose 20 µM)”, which AUC is on record?
A: 0.986

Q: What about the IC50 of the same cell line?
A: > 20 µM

Q: For “NCI-H1688 (small cell lung carcinoma, adherent, top dose 20 µM)”, which AUC is on record?
A: 0.917

Q: And the IC50?
A: > 20 µM

Q: How did the AUC turn out when “NCI-H1693 (lung adenocarcinoma, adherent, top dose 20 µM)” was run?
A: 0.967

Q: And the IC50?
A: > 20 µM

Q: With “NCI-H1694 (small cell lung carcinoma, suspension, top dose 20 µM)” as the cell line, how does the AUC read?
A: 0.927

Q: What about the IC50 of the same cell line?
A: > 20 µM

Q: “NCI-H1703 (lung adenocarcinoma, adherent, top dose 20 µM)” was tested. Which AUC did it give?
A: 0.926

Q: What about the IC50 of the same cell line?
A: > 20 µM

Q: “NCI-H1734 (lung adenocarcinoma, adherent, top dose 20 µM)” was tested. Which AUC did it give?
A: 0.964

Q: What about the IC50 of the same cell line?
A: > 20 µM
